These results are taken from article PMC11384143 (2024).

The assay deals with ES004-B5. The experiment in a line: SPR. On the technique in general: SPR reads the build-up and loss of mass on a sensor chip optically.

As a reminder, the Kd is a measure of binding affinity in units of concentration. Low values mean tighter binding, high ones weaker binding. In general, koff refers to the first-order rate constant of dissociation. A higher koff goes with a short-lived complex.

B1: 6 × His tagged huSIRPα V8 ECD recombinant protein (domain or fragment)
chain: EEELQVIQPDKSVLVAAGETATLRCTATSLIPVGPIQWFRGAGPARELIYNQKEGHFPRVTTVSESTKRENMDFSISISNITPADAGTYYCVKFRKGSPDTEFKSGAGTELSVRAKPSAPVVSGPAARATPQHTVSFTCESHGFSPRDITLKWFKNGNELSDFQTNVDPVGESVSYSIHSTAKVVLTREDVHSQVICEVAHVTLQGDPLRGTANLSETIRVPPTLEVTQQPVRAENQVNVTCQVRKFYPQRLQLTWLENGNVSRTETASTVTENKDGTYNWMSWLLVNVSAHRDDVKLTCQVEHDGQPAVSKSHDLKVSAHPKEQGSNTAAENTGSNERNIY
The molecule B1 registered a dissociation constant Kd of 0.82 nM and a dissociation rate constant (koff) of 0.00258 s⁻¹.

B2: 6 × His tagged huSIRPα V2 ECD recombinant protein (domain or fragment)
chain: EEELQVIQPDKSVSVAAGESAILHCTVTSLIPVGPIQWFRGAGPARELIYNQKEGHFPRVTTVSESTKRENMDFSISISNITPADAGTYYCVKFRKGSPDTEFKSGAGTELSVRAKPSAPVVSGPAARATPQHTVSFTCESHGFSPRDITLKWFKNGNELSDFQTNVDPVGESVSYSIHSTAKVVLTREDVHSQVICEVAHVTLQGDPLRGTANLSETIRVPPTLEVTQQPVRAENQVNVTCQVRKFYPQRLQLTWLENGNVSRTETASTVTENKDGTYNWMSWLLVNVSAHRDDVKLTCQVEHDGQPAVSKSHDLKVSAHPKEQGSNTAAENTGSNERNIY
For B2, the Kd worked out at 2.73 nM and the off-rate (koff) stood at 0.00366 s⁻¹.
